The assay has as its system B. fragilis 23745. The experiment in a line: In vivo anti-anaerobe activity, mouse hepatic necrosis. The conditions noted are these: Bacteroides fragilis, 23745, in Mus musculus, po, 48 h, read-out: Dose giving 1 log reduction, p.o., immediately after infection and twice daily for 2 days.
Where [1] appears, read: 1 log (90%) reduction of CFU/ml liver homogenate, from dose response curves.
Where [2] appears, read: same dose in molar units, in parentheses.

Read-outs that look alike come from different tables or passages of the source.

Consider `CC1(C)CN=C2C(c3ccccc3)=[N+]([O-])c3cc(C(F)(F)F)ccc3N2C1` [Example 1, 2,3-Dihydro-2,2-dimethyl-5-phenyl-8-trifluoromethyl-1H-pyrimido[1,2-a]quinoxaline 6-oxide], for which the ED (1 log reduction) stood at 2.05 mg/kg under setting [1] and 5.5 µmol/kg under setting [2].
Regarding `CC1(C)CN=C2C(c3ccccc3)=[N+]([O-])c3ccc(F)cc3N2C1` [Example 2, 2,3-Dihydro-2,2-dimethyl-9-fluoro-5-phenyl-1H-pyrimido [1,2-a]quinoxaline 6-oxide], the ED (1 log reduction) is, setting by setting: under setting [1], 2.7 mg/kg; under setting [2], 8.4 µmol/kg.
As for `Cc1ccc(C2=[N+]([O-])c3cc(C(F)(F)F)ccc3N3CC(C)(C)CN=C23)cc1` [Example 3, 2,3-Dihydro-2,2-dimethyl-5-(4-methylphenyl)-8-trifluoromethyl-1H-pyrimid [1,2-a]quinoxaline 6-oxide], the ED (1 log reduction) under setting [1] turned out to be 22.6 mg/kg and the ED (1 log reduction) under setting [2] is 58 µmol/kg.
The matching figures for `CCC1(C)CN=C2C(c3ccccc3)=[N+]([O-])c3cc(C(F)(F)F)ccc3N2C1` (stereo not drawn) [Example 4, 2,3-Dihydro-2-ethyl-2-methyl-5-phenyl-8-trifluoromethyl-1H-pyrimido [1,2-a]quinoxaline 6-oxide]: 4.45 mg/kg and 11.5 µmol/kg.
`CC1(C)CN=C2C(c3ccccc3)=[N+]([O-])c3cccc(F)c3N2C1` [Example 5, 2,3-Dihydro-2,2-dimethyl-10-fluoeo-5-phenyl-1H-pyrimido [1,2-a]quinoxaline 6-oxide]: the ED (1 log reduction) reads like this: under setting [1], 3.2 mg/kg; under setting [2], 9.9 µmol/kg.
Consider `Cc1ncc([N+](=O)[O-])n1CCO` [Metronidazole, reference compound], for which the ED (1 log reduction) reads like this: under setting [1], 1.9 mg/kg; under setting [2], 11 µmol/kg.

The values above are taken from US4758565A, “Substituted pyrimidoquinoxalines useful as anti-anaerobic agents” (G. D. Searle & Co., priority 1986, dated 1988).
